This note sets out measurements from the supplement of paper PMC4604168 (melanoma cell lines).

This is one part of the list. Repeats are few or missing, and single values can be far off.

Test systems include A101D; A2058; A375.
Common to all, as to test: cell count relative to DMSO control; melanoma cells; higher = more viable cells
Common to all, as to details: library dose: standard library concentration; 72 h
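Also: cells treated in 1,536-well plates, then fixed and DAPI-stained, with nuclei counted from automated high-throughput microscope images.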

Consider `O=C(O)[C@@H]1[O][Sb](=[O])([O][Sb]2(=[O])[O][C@H]([C@H](O)CO)[C@H](O)[C@H](C(=O)O)[O]2)[O][C@H]([C@H](O)CO)[C@@H]1O` (some centres undefined) [stibogluconate] + COc1ccc(Cl)c(Nc2nc3ccccc3nc2NS(=O)(=O)c2cccc(NC(=O)C(C)(C)N)c2)c1 [XL147] (first compound 10 µM, partner dose 4 µM), for which the values for the cell count with A101D, in the test on A2058 and with A375 were 96.5%, 136% and 99.9%, respectively.

With `O=C(O)c1ccc2c(c1)nc(Nc1cccc(Cl)c1)c1ccncc12` + Nc1ncn([C@H]2C[C@H](O)[C@@H](CO)O2)c(=O)n1 [decitabine] (first compound 2 µM, partner dose 0.5 µM), the cell count amounted to 68.3% with A101D, 71.2% in the test with A2058 and 64% in the test on A375.

As to `O=C(O)[C@@H]1[O][Sb](=[O])([O][Sb]2(=[O])[O][C@H]([C@H](O)CO)[C@H](O)[C@H](C(=O)O)[O]2)[O][C@H]([C@H](O)CO)[C@@H]1O` (some centres undefined) [stibogluconate] + Clc1ccc(Nc2nnc(Cc3ccncc3)c3ccccc23)cc1 [vatalanib] (first compound 10 µM, partner dose 10 µM), the figures for the cell count in the test on A101D, in the test on A2058 and in the test on A375 were 82.4%, 83.8% and 108%, respectively.

`Cc1cc(N2CCOCC2)cc2[nH]c(-c3c(NC[C@@H](O)c4cccc(Cl)c4)cc[nH]c3=O)nc12` + Oc1nc(-c2ccc(C(F)(F)F)cc2)nc2c1CSCC2 [XAV939] (first compound 1 µM, partner dose 10 µM): the cell count was 93% in the test with A101D, 81.5% in the test on A2058 and 120% with A375.

As for `O=C(Nc1cc(C(F)(F)F)cc(C(F)(F)F)c1)c1cc(Cl)ccc1O` + Cc1ccc(NC(=O)c2cccc(N(C)C)c2)cc1NC(=O)c1ccc(O)cc1 [ZM336372] (first compound 0.08 µM, partner dose 10 µM), the cell count in the test with A101D was found to be 66.4%; with A2058, 89.5%; in the test on A375, 113%.

For `O=C(Nc1cc(C(F)(F)F)cc(C(F)(F)F)c1)c1cc(Cl)ccc1O` + C[C@@H]1CCN(C(=O)CC#N)C[C@@H]1N(C)c1ncnc2[nH]ccc12 [CP690550] (first compound 0.08 µM, partner dose 5 µM), the cell count is 102% in the test on A101D, 82.7% in the test with A2058 and 89.9% in the test on A375.

Consider `O=C(O)c1ccc2c(c1)nc(Nc1cccc(Cl)c1)c1ccncc12` + C=C(c1ccc(C(=O)O)cc1)c1cc2c(cc1C)C(C)(C)CCC2(C)C [Bexarotene] (first compound 2 µM, partner dose 10 µM), for which the results for the cell count with A101D, with A2058 and in the test with A375 were 78.2%, 77% and 90%, respectively.

On to `O=C(Nc1cc(C(F)(F)F)cc(C(F)(F)F)c1)c1cc(Cl)ccc1O` + CC(=O)O[C@@]12CO[C@@H]1C[C@H](O)[C@@]1(C)C(=O)[C@H](O)C3=C(C)[C@@H](OC(=O)[C@H](O)[C@@H](NC(=O)OC(C)(C)C)c4ccccc4)C[C@@](O)([C@@H](OC(=O)c4ccccc4)[C@H]21)C3(C)C [Docetaxel] (first compound 0.08 µM, partner dose 0.0005 µM), for which the cell count in the test with A101D came out at 51.1%; in the test on A2058, 16.6%; in the test with A375, 71.6%.

On to `O=C(Nc1cc(C(F)(F)F)cc(C(F)(F)F)c1)c1cc(Cl)ccc1O` + CCCCCCCCCCCC1=C(O)C(=O)C=C(O)C1=O [Embelin] (first compound 0.08 µM, partner dose 6 µM), for which the cell count in the test on A101D was 83.7%; with A2058 it was 88.9%; in the test on A375 it was 92.6%.

With `O=C(Nc1cc(C(F)(F)F)cc(C(F)(F)F)c1)c1cc(Cl)ccc1O` + CS(=O)(=O)c1ccc(C(=O)Nc2ccc(Cl)c(-c3ccccn3)c2)c(Cl)c1 [vismodegib] (first compound 0.08 µM, partner dose 5 µM), the results for the cell count with A101D, in the test with A2058 and in the test with A375 were 133%, 92.7% and 101%, respectively.

Take `O=C(O)c1ccc2c(c1)nc(Nc1cccc(Cl)c1)c1ccncc12` + C[C@@H]1CCN(C(=O)CC#N)C[C@@H]1N(C)c1ncnc2[nH]ccc12 [CP690550] (first compound 2 µM, partner dose 5 µM): the cell count was 91.3% in the test on A101D, 96.4% in the test with A2058 and 64.9% with A375.

As to `O=C(O)c1ccc2c(c1)nc(Nc1cccc(Cl)c1)c1ccncc12` + CN(NC(=O)CC(=O)NN(C)C(=S)c1ccccc1)C(=S)c1ccccc1 [STA4783] (first compound 2 µM, partner dose 0.03 µM), the results for the cell count with A101D, with A2058 and in the test on A375 were 57.1%, 10.3% and 78.2%, respectively.

As for `O=C(Nc1cc(C(F)(F)F)cc(C(F)(F)F)c1)c1cc(Cl)ccc1O` + CS(=O)(=O)CCNCc1ccc(-c2ccc3ncnc(Nc4ccc(OCc5cccc(F)c5)c(Cl)c4)c3c2)o1 [lapatinib] (first compound 0.08 µM, partner dose 4 µM), the cell count in the test on A101D was determined as 94.8%; in the test with A2058 it was 73.6%; in the test on A375, 122%.

In the case of `O=C(O)c1ccc2c(c1)nc(Nc1cccc(Cl)c1)c1ccncc12` + NC(=O)Nc1cc(-c2cccc(F)c2)sc1C(=O)N[C@H]1CCCNC1 [AZD7762] (first compound 2 µM, partner dose 0.1 µM), the results for the cell count in the test with A101D, in the test on A2058 and in the test with A375 were 55.1%, 80.2% and 51.4%, respectively.

For the molecule `O=C(Nc1ccccc1)c1cc([N+](=O)[O-])ccc1Cl` + O=S(=O)(c1ccccc1)N(CC(F)(F)F)c1ccc(C(O)(C(F)(F)F)C(F)(F)F)cc1 [T0901317] (first compound 10 µM, partner dose 7 µM), the cell count in the test with A101D was 77.4%; with A2058, 87.3%; in the test on A375, 140%.

`Cn1nnc2c(C(N)=O)ncn2c1=O` [temozolomide] + O=C(Nc1cccc(Cl)c1)Nc1ncc(CCNc2ncnc3ccsc23)s1 [SNS314] (first compound 10 µM, partner dose 0.004 µM): the cell count in the test on A101D came out at 76.9%; in the test on A2058, 55.8%; in the test with A375, 93%.

In the case of `O=C(O)c1ccc2c(c1)nc(Nc1cccc(Cl)c1)c1ccncc12` + C=CCn1c(=O)c2cnc(Nc3ccc(N4CCN(C)CC4)cc3)nc2n1-c1cccc(C(C)(C)O)n1 [MK1775] (first compound 2 µM, partner dose 0.1 µM), the cell count with A101D is 67.4%; in the test on A2058, 80.5%; in the test on A375 it was 59%.

As for `O=C(Nc1cc(C(F)(F)F)cc(C(F)(F)F)c1)c1cc(Cl)ccc1O` + NC(=O)Nc1cc(-c2cccc(F)c2)sc1C(=O)N[C@H]1CCCNC1 [AZD7762] (first compound 0.08 µM, partner dose 0.1 µM), the cell count in the test with A101D came out at 58.2%; with A2058 it was 89.6%; in the test with A375 it was 38.6%.

With `Cn1nnc2c(C(N)=O)ncn2c1=O` [temozolomide] + CCN(CC)CCCCNc1ncc2cc(-c3cc(OC)cc(OC)c3)c(NC(=O)NC(C)(C)C)nc2n1 [PD173074] (first compound 10 µM, partner dose 0.5 µM), the cell count in the test with A101D is 105%; with A2058 it was 53.5%; in the test on A375, 140%.

Regarding `O=C(Nc1cc(C(F)(F)F)cc(C(F)(F)F)c1)c1cc(Cl)ccc1O` + O=C(/C=C/c1cccnc1)NCCCCC1CCN(C(=O)c2ccccc2)CC1 [FK866] (first compound 0.08 µM, partner dose 0.05 µM), the results for the cell count in the test with A101D, in the test with A2058 and in the test with A375 were 78.1%, 107% and 85%, respectively.

For the molecule `O=C(O)c1ccc2c(c1)nc(Nc1cccc(Cl)c1)c1ccncc12` + Nc1nc(F)nc2c1ncn2[C@@H]1O[C@H](CO)[C@@H](O)[C@@H]1O [fludarabine] (first compound 2 µM, partner dose 1 µM), the figures for the cell count in the test on A101D, with A2058 and in the test with A375 were 68%, 63.8% and 22.7%, respectively.

For `O=C(O)c1ccc2c(c1)nc(Nc1cccc(Cl)c1)c1ccncc12` + O=C(CCCCCCC(=O)Nc1ccccc1)NO [vorinostat] (first compound 2 µM, partner dose 0.4 µM), the values for the cell count with A101D, with A2058 and with A375 were 76.6%, 84% and 71.1%, respectively.

Regarding `O=C(O)c1ccc2c(c1)nc(Nc1cccc(Cl)c1)c1ccncc12` + Cc1ccc(NC(=O)c2cccc(N(C)C)c2)cc1NC(=O)c1ccc(O)cc1 [ZM336372] (first compound 2 µM, partner dose 10 µM), the results for the cell count with A101D, with A2058 and in the test on A375 were 76.2%, 78.1% and 70.9%, respectively.

In the case of `O=C(Nc1cc(C(F)(F)F)cc(C(F)(F)F)c1)c1cc(Cl)ccc1O` + Cn1c(=O)n(-c2ccc(C(C)(C)C#N)cc2)c2c3cc(-c4cnc5ccccc5c4)ccc3ncc21 [NVP-BEZ235] (first compound 0.08 µM, partner dose 0.02 µM), the cell count is 65.5% in the test with A101D, 66.7% in the test with A2058 and 87.5% with A375.

In the case of `O=C(O)[C@@H]1[O][Sb](=[O])([O][Sb]2(=[O])[O][C@H]([C@H](O)CO)[C@H](O)[C@H](C(=O)O)[O]2)[O][C@H]([C@H](O)CO)[C@@H]1O` (some centres undefined) [stibogluconate] + OCc1c[nH]c2ccccc12 [Indole-3-carbinol] (first compound 10 µM, partner dose 4 µM), the cell count in the test with A101D is 94.5%; in the test on A2058, 83.7%; in the test with A375, 113%.

Consider `O=C(O)[C@@H]1[O][Sb](=[O])([O][Sb]2(=[O])[O][C@H]([C@H](O)CO)[C@H](O)[C@H](C(=O)O)[O]2)[O][C@H]([C@H](O)CO)[C@@H]1O` (some centres undefined) [stibogluconate] + CNC(=O)c1cc(Oc2ccc(NC(=O)Nc3ccc(Cl)c(C(F)(F)F)c3)cc2)ccn1 [sorafenib] (first compound 10 µM, partner dose 2 µM), for which the cell count in the test on A101D stood at 83.3%; with A2058, 136%; with A375 it was 140%.

Regarding `O=C(O)[C@@H]1[O][Sb](=[O])([O][Sb]2(=[O])[O][C@H]([C@H](O)CO)[C@H](O)[C@H](C(=O)O)[O]2)[O][C@H]([C@H](O)CO)[C@@H]1O` (some centres undefined) [stibogluconate] + C[C@]1(c2nc3c(C(N)=O)cccc3[nH]2)CCCN1 [Veliparib] (first compound 10 µM, partner dose 7 µM), the figures for the cell count with A101D, in the test on A2058 and in the test with A375 were 85.2%, 70.8% and 95.9%, respectively.

For the molecule `O=C(Nc1cc(C(F)(F)F)cc(C(F)(F)F)c1)c1cc(Cl)ccc1O` + Cn1cc(/C=C2\C(=O)Nc3cccnc32)c2ccccc21 [GW441756] (first compound 0.08 µM, partner dose 2 µM), the results for the cell count with A101D, in the test on A2058 and with A375 were 103%, 132% and 143%, respectively.
